Measured values: a collection of fitness landscapes (doi:10.1126/science.1257360)
Some of the results follow.

B1: PhoQ; a variant is named by its letters at X, in order, P23837 (parent)
chain: MKKLLRLFFPLSLRVRFLLATAAVVLVLSLAYGMVALIGYSVSFDKTTFRLLRGESNLFYTLAKWENNKLHVELPENIDKQSPTMTLIYDENGQLLWAQRDVPWLMKMIQPDWLKSNGFHEIEADVNDTSLLLSGDHSIQQQLQEVREDDDDAEMTHSVAVNVYPATSRMPKLTIVVVDTIPVELKSSYMVWSWFIYVLSANLLLVIPLLWVAAWWSLRPIEALAKEVRELEEHNRELLNPATTRELTSLVRNLNRLLKSERERYDKYRTTLTDLTHSLKTPLXXLQXXLRSLRSEKMSVSDAEPVMLEQISRISQQIGYYLHRASMRGGTLLSRELHPVAPLLDNLTSALNKVYQRKGVNISLDISPEISFVGEQNDFVEVMGNVLDNACKYCLEFVEISARQTDEHLYIVVEDDGPGIPLSKREVIFDRGQRVDTLRPGQGVGLAVAREITEQYEGKIVAGESMLGGARMEVIFGRQHSAPKDE

Variants of: B1
Assay: enrichment ratio after two sorts for PhoP signalling (ratio (wild type AVST 3.29)); higher = more functional
Details: with PhoP (E. coli)

Variant	enrichment ratio
IQMR	≤ 0.25
PIGN	≤ 0.25
NRPK	≤ 0.25
MYWS	≤ 0.25
AGWS	≤ 0.25
FMTY	≤ 0.25
NLWP	≤ 0.25
QSRM	≤ 0.25
QDHS	≤ 0.25
FQSQ	≤ 0.25
NKDG	≤ 0.25
TCLN	13.6
QFFY	≤ 0.25
LPIF	≤ 0.25
SPWP	≤ 0.25
SKKH	≤ 0.25
KVKR	≤ 0.25
GNGR	≤ 0.25
NMGP	≤ 0.25
IKAV	≤ 0.25
LKQM	1.53
ANEY	≤ 0.25
RLRG	≤ 0.25
HYDI	≤ 0.25

Variant	enrichment ratio
TIQI	12.3
RYDN	≤ 0.25
WIYL	≤ 0.25
NLPL	≤ 0.25
THAE	≤ 0.25
YVPP	≤ 0.25
KSCG	1.82
DGVK	≤ 0.25
TPSY	≤ 0.25
IQYC	≤ 0.25
DSPP	≤ 0.25
ETQV	≤ 0.25
WIFE	≤ 0.25
KPVA	≤ 0.25
NEFI	≤ 0.25
FYGD	≤ 0.25
IGVQ	≤ 0.25
RCVD	≤ 0.25
GWCL	≤ 0.25
LKKK	≤ 0.25
IMGN	≤ 0.25
RNNM	≤ 0.25
LICS	≤ 0.25
NSKV	≤ 0.25

Variant	enrichment ratio
GKWA	≤ 0.25
TEDT	3.04
NPYK	≤ 0.25
EDKP	≤ 0.25
RHSE	≤ 0.25
KHHH	≤ 0.25
HCPR	≤ 0.25
MHNR	≤ 0.25
TYFL	≤ 0.25
GHFH	≤ 0.25
IGTW	1.37
TQSN	8.05
TFNH	≤ 0.25
FMCI	≤ 0.25
VCCP	≤ 0.25
LYMF	≤ 0.25
FNEM	≤ 0.25
IQEN	≤ 0.25
YCKF	≤ 0.25
KIIR	≤ 0.25
IFKD	≤ 0.25
YNSQ	≤ 0.25
FKGE	≤ 0.25
KKHC	≤ 0.25

Variant	enrichment ratio
KSNK	≤ 0.25
RNQG	≤ 0.25
QHHI	≤ 0.25
DWFK	≤ 0.25
PCGL	≤ 0.25
QGRN	≤ 0.25
HHRH	≤ 0.25
VSPV	≤ 0.25
VAGM	2.76
KYGE	≤ 0.25
HMYT	≤ 0.25
VMFY	≤ 0.25
KLYE	≤ 0.25
ICDA	≤ 0.25
NPGW	≤ 0.25
RVEM	≤ 0.25
AWRN	≤ 0.25
VEMI	≤ 0.25
QWQV	≤ 0.25
WYFA	≤ 0.25
LLMC	≤ 0.25
HEGE	≤ 0.25
VFIF	≤ 0.25
TVLQ	1.48

Variant	enrichment ratio
RQCM	≤ 0.25
GSKW	≤ 0.25
SYNA	≤ 0.25
RPYM	≤ 0.25
CFKF	≤ 0.25
SWRC	≤ 0.25
FHLK	≤ 0.25
MIYT	≤ 0.25
EPMF	≤ 0.25
LYYC	≤ 0.25
GYIR	≤ 0.25
NCYP	≤ 0.25
VQFR	≤ 0.25
PFNE	≤ 0.25
NMYR	≤ 0.25
VHIM	≤ 0.25
LAQR	≤ 0.25
MIWS	≤ 0.25
RFAW	≤ 0.25
IMAG	≤ 0.25
IYMY	≤ 0.25
LWNA	≤ 0.25
RRPM	≤ 0.25
QNAV	≤ 0.25

Variant	enrichment ratio
GLAS	≤ 0.25
RPPR	≤ 0.25
GFVR	≤ 0.25
RYWA	≤ 0.25
MLAF	5.84
DFRR	≤ 0.25
GWFI	≤ 0.25
RKES	≤ 0.25
LHHL	≤ 0.25
TIRK	≤ 0.25
GIMV	2.38
TISD	≤ 0.25
DGAW	≤ 0.25
TWSK	≤ 0.25
YGQV	≤ 0.25
VDTF	≤ 0.25
FTLR	≤ 0.25
LGGG	≤ 0.25
SWVL	≤ 0.25
LYWW	≤ 0.25
LFQE	≤ 0.25
LFID	≤ 0.25
PFVN	≤ 0.25
FKCH	≤ 0.25

Variant	enrichment ratio
VVDF	≤ 0.25
IAEL	≤ 0.25
VECD	≤ 0.25
ISFG	≤ 0.25
WVPQ	≤ 0.25
GGPT	≤ 0.25
PCEC	≤ 0.25
YLSS	0.34
WMGR	≤ 0.25
RTRK	≤ 0.25
GMKI	≤ 0.25
AAYK	≤ 0.25
ELQE	≤ 0.25
WYHK	≤ 0.25
CSNV	≤ 0.25
LNQD	≤ 0.25
NRFN	≤ 0.25
LRTN	≤ 0.25
VIHA	≤ 0.25
AWTP	≤ 0.25
EICN	≤ 0.25
GLPS	≤ 0.25
FHQL	≤ 0.25
ERIW	≤ 0.25

Variant	enrichment ratio
DSTN	≤ 0.25
KHVK	≤ 0.25
YILQ	0.9
MAMV	10.7
VDNS	≤ 0.25
WDVV	≤ 0.25
QLCR	≤ 0.25
PQRP	≤ 0.25
QILG	≤ 0.25
HKIP	≤ 0.25
VDPG	≤ 0.25
SEDD	≤ 0.25
EHHK	14.4
NNDA	≤ 0.25
DWEM	≤ 0.25
DHFC	≤ 0.25
HTPP	≤ 0.25
NQHV	≤ 0.25
MFAT	≤ 0.25
RKYW	≤ 0.25
ICHN	≤ 0.25
TSIE	≤ 0.25
TVHP	≤ 0.25
SNLL	18.5

Variant	enrichment ratio
AWLS	1.08
TYIY	≤ 0.25
PYMF	≤ 0.25
DTYI	≤ 0.25
QAYS	≤ 0.25
IKGP	≤ 0.25
DTGQ	≤ 0.25
PQPC	≤ 0.25
IFKK	≤ 0.25
AQGY	≤ 0.25
GNWV	≤ 0.25
DSFL	≤ 0.25
PSDI	≤ 0.25
AIPF	≤ 0.25
AKNW	≤ 0.25
EAKN	≤ 0.25
TRPQ	≤ 0.25
WSHK	≤ 0.25
FMFK	≤ 0.25
SEDF	≤ 0.25
MALT	3.1
RMVF	≤ 0.25
ISWH	≤ 0.25
ERSD	≤ 0.25

Variant	enrichment ratio
NKFC	≤ 0.25
VYNM	≤ 0.25
GRAH	≤ 0.25
IFMH	≤ 0.25
ECCL	≤ 0.25
EYGR	≤ 0.25
YKCG	≤ 0.25
QQIM	≤ 0.25
SMAF	6.44
RVSM	≤ 0.25
QRWW	≤ 0.25
YVWH	≤ 0.25
EFDK	≤ 0.25
PDSD	≤ 0.25
RNMW	≤ 0.25
AKYR	≤ 0.25
PCNM	≤ 0.25
FYEY	≤ 0.25
VLTH	≤ 0.25
ASFN	≤ 0.25
VEAF	≤ 0.25
WKEF	≤ 0.25
WEPV	≤ 0.25
ADFY	≤ 0.25

Variant	enrichment ratio
WDDV	≤ 0.25
IMFN	≤ 0.25
RTII	≤ 0.25
MQTR	≤ 0.25
EHMV	≤ 0.25
MNKI	≤ 0.25
FFSY	≤ 0.25
IQDL	≤ 0.25
RLSG	≤ 0.25
FNHC	≤ 0.25
RGNA	≤ 0.25
REMA	≤ 0.25
DPQG	≤ 0.25
LNVS	≤ 0.25
AVSG	16.7
VTFK	≤ 0.25
CSVG	≤ 0.25
TYGP	≤ 0.25
VLES	≤ 0.25
STCA	7.48
GTIW	≤ 0.25
VWVY	≤ 0.25
AGIA	0.868
VMTH	≤ 0.25

Variant	enrichment ratio
ASRW	≤ 0.25
KTLA	≤ 0.25
LTIQ	≤ 0.25
IQAY	≤ 0.25
STQM	12.8
LSCS	≤ 0.25
KRIW	≤ 0.25
DFTY	≤ 0.25
ITTI	≤ 0.25
WSAH	≤ 0.25
VRLA	≤ 0.25
PMTE	≤ 0.25
TMGD	3.55
KNYM	≤ 0.25
ATYN	2.69
SYDV	≤ 0.25
RDGM	≤ 0.25
DRKY	≤ 0.25
QNPE	≤ 0.25
RMQM	≤ 0.25
HHLD	≤ 0.25
FQVW	≤ 0.25
VTYG	≤ 0.25
AMEP	≤ 0.25

Variant	enrichment ratio
SYIT	≤ 0.25
FVVF	≤ 0.25
LVYH	≤ 0.25
DVPK	≤ 0.25
MAEG	≤ 0.25
NSPG	≤ 0.25
SPND	≤ 0.25
HMCE	≤ 0.25
SCMV	9.09
MSVG	≤ 0.25
YMVR	≤ 0.25
KKQG	≤ 0.25
KNGP	≤ 0.25
SSLH	11.4
PEII	≤ 0.25
WGMV	≤ 0.25
YYST	≤ 0.25
YPGF	≤ 0.25
